Reference: the supplement of paper PMC4466236
Over roughly 33,000 sequences, “E-score (dimensionless, -0.5 to 0.5)” has its median near -0.058; the highest 2% begin near 0.35. The list shows a part of the results.

Tested on: MvaT
Assay: PBM 8-mer E-score (mean of HK and ME arrays) (E-score (dimensionless, -0.5 to 0.5)); higher = stronger relative binding preference; most listed sequences are background and not binding sites
Procedure: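 Protein binding microarray: GST-tagged full-length MvaT (P. aeruginosa PAO1) bound to two universal double-stranded 60-mer arrays (ME and HK), each with a constant 25-mer primer and a variable 35-mer region covering all 8-mers. The 8-mer E-score (rank-based, range -0.5 to 0.5, >0.45 = specific binding) is the mean of the two arrays.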

Sequence	PBM 8-mer E-score
GCCGCTCC	-0.271
ACACCTGT	-0.233
CGCTGACG	-0.221
TATGTGCA	0.17
TATAAACA	0.373
GCATCAGA	-0.134
GTACCCTA	-0.101
AACGTCTT	-0.014
GTCTGCCA	-0.154
ACGAAACA	0.112
ACTGGCCA	-0.171
GTCTCCGA	-0.0491
AAATTAAA	0.399
AATCTGCC	-0.0395
CAGAACTA	0.198
CCCAACCC	-0.264
ACGCCACT	-0.0949
TAAGCGGA	0.0899
CGTTAGCC	-0.129
AGCTACCG	-0.268
AGTGTACG	-0.0263
ATCCAATA	0.186
AAATAGGA	-0.0215
AGAGGGTA	-0.141
AACTGCTG	-0.0452

Sequence	PBM 8-mer E-score
CGCAGCCG	-0.215
CCGTTCTC	-0.0662
CGCTCAAA	0.0659
GATAATTA	0.419
CACTGACG	-0.148
GCGGCAGA	-0.222
CGAAAGGC	-0.183
GACAGGCC	-0.239
CCCTACCA	-0.122
TGGTCTAA	0.037
CTACTGTA	0.176
AAAATTGA	0.224
AGTTTGCC	0.0484
ATAGTTAA	0.339
CCGAGCCC	-0.26
CGCCGGTC	-0.192
CGAAGCGC	-0.154
TACTCTCA	0.11
GATTGTGA	0.092
GACAGCTC	-0.2
GTTGAGCA	-0.0536
GAAAGGAC	-0.24
CGAGCTAG	-0.17
ATGACAAA	0.165
AATTGGCT	-0.0492

Sequence	PBM 8-mer E-score
CGTTTAAC	0.0182
ACTAAACT	0.317
ACCCGTTC	-0.267
CCTGAGAG	-0.32
AAGCCACC	-0.219
CCCAACGG	-0.282
ATCGCGAC	-0.0729
AGTTCGCA	0.154
AACCGCAT	0.0136
CGAAGGCG	-0.125
GTGTCATA	0.0812
ATCTAACC	0.0852
AGAGGACA	-0.0682
GGACTCCC	-0.283
AAATACAG	0.175
GATATGAC	0.049
CGGACTCA	-0.133
TAACAAGA	0.212
AATAACCC	0.226
AATGTGGT	0.168
AGCGTGAG	-0.231
ATGCAGTG	-0.0239
AATTCGCT	0.0747
ACGACCTA	-0.0399
ACCTTCCA	0.0201

Sequence	PBM 8-mer E-score
AGGGCTTA	-0.187
CAACTGTG	-0.107
AGGGGGCG	-0.324
AGTCTACA	0.112
CATGCCGA	0.0669
ATACTCAA	0.166
CTCCAACA	-0.00785
CATACGAC	-0.0194
CATTAGGC	-0.202
AGTTCAAC	0.167
AAGTTAAG	0.243
ATTAGTGG	0.192
ACCGTTTA	0.151
CTCTATAC	0.00646
AGCGCTAA	-0.115
AGACCTAA	-0.0291
CAATCCCC	-0.108
TCTAGAAA	0.0814
TAATACGA	0.317
CCCTCATA	-0.0718
GGCCTGCA	-0.189
ATACTTAG	0.256
AGTTTTCG	0.153
GGGGCAAC	-0.155
AAGCCCCC	-0.314

Sequence	PBM 8-mer E-score
CTAAACGC	0.0854
GCATGGGC	-0.165
TACCACCA	0.0375
ATTTCTGA	0.0863
AACCAGAT	0.0597
GGGAGTTA	0.0873
CGGACCAA	-0.11
CGGGTCTC	-0.201
AGACTAAC	0.00982
ACCGTAAC	0.0744
TGCTCGAA	-0.102
CCCTAAAC	-0.0647
ATAGAATG	0.0755
CGCGAGCA	-0.147
GTTTCTGA	0.127
CGTGCCAA	-0.15
CGTCACTC	-0.168
TCACGCAA	-0.124
AGGGGCTA	-0.267
CATGTGCG	-0.132
AAATAAAT	0.428
AGTGGTGG	-0.104
GAGCTGTA	-0.0705
CCCTGTTA	-0.0586
GGCGGCAC	-0.132

Sequence	PBM 8-mer E-score
CTGGGTCA	-0.238
TATAGATA	0.27
ATGGACTC	-0.266
ATTGTAAA	0.28
ATTCAACG	0.0307
ACCTATAC	0.0839
CTGATAAG	0.013
CAATTAGC	-0.00502
CCGTCATA	0.0748
ACACTTTA	0.269
ACCAATCA	0.0313
GTCTTTCA	0.0345
ACAGACAT	0.058
ACGTTTGC	-0.103
TACCATGA	0.0348
AGGGCCCG	-0.227
ACTTGTCT	0.00162
ATTCTCCA	0.0681
AGACGGGA	-0.0586
CCCCCACA	-0.214
CCACGCCC	-0.228
ACGTCGAT	-0.00787
ACTAACTC	0.118
ACATAAAA	0.23
AAATCAGA	-0.0536

Sequence	PBM 8-mer E-score
CCCCGGAA	-0.27
CAACCTGG	-0.176
CTGCCGAC	-0.236
GATAGTAC	0.106
ATCTTTCG	-0.00784
AACAGTGG	0.0654
CCTACCCC	-0.222
ACGGTGAC	-0.147
ATCGACAC	-0.0169
CTTCACAA	0.027
ACAATGAG	0.059
CCACGCTC	-0.161
ACCGGGGC	-0.224
CACGGTGG	-0.225
GCGAAGTA	0.0165
ATTCGCTG	0.0455
AACCGCTT	-0.0683
ATCGGGAG	-0.073
GACCGCGC	-0.287
CGAGAAAC	0.0349
AAGCGGAC	-0.0883
GCCCTTCC	-0.259
